Results as given in PubChem BioAssay AID686979 (National Center for Advancing Translational Sciences (NCATS), 2013).
Screen size: about 420,000 compounds; about 50,000 (12%) were called active. The inconclusive results got no clear call from the source; some entries with a clear call stand among them for comparison. The call rests on the fitted dose curve; in most records, active means well fitted inhibition curve with a large enough effect; inconclusive means small, poorly fitted or top-dose-only effect; inactive means flat fitted curve, though single readings scatter. No potency is given beside an inconclusive call; the fits are too rough.

Experiment: qHTS for Inhibitors of human tyrosyl-DNA phosphodiesterase 1 (TDP1): qHTS in cells in presence of CPT; further: nearly all actives have a fitted effect of over 55% in size
Conditions: chicken DT40 Tdp1-/-;hTDP1 cells + 20 nM CPT, ATP luminescence, 48 h; activity change, negative = growth inhibition: at 46.2 µM (top of the series) unless noted
Procedure, shortened: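 Cell growth measured by CellTiter-Glo luminescence after a minimum 48 h, 37 C compound exposure with 20 nM CPT in Tdp1-knockout DT40 cells stably expressing hTDP1, seeded 400/well; qHTS titration format.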
On the % scale 0 is the no-effect control and ±100 the full control effect; potency means the concentration at half of the fitted maximal effect; tags describe the fitted curve by direction and shape.

| SMILES | Potency | activity change, negative = growth inhibition |
| --- | --- | --- |
| Cc1cc(C)cc(NS(=O)(=O)c2ccc3c(c2)c(=O)n(C)c(=O)n3C)c1 | active: 1.84 µM |  |
| CCOC(=O)C(=O)Cc1cccnn1 |  | inactive: 4.15% |
| OCc1nc2ccccc2n1CC(O)COc1ccccc1 (stereo not given) |  | inactive: -16.4% |
| CCC(Sc1nc2ccccc2c(=O)n1CCc1ccc(OC)c(OC)c1)C(=O)N(CC)CC (stereo not given) | active: 6.51 µM |  |
| CN(CCC(=O)Nc1ccc(Cl)cc1)Cc1ccccc1 |  | inactive: -21.2% |
| Cc1cc(C)n(-c2nc3ccccc3nc2Nc2cccc(C)c2C)n1 |  | inactive: -13.1% |
| CC(=O)Nc1ccc(C(=O)NNC(=O)c2cccc(C)c2)cc1 |  | inactive: 23.6% |
| CC1CCC2(CC1)N=C(N)Nc1nc3ccccc3n12 (stereo not given) |  | inactive: 0.756% |
| c1ccc(-c2nnc(CSc3nc4ccccc4[nH]3)o2)cc1 |  | inactive: -7.62% |
| CCc1cccc(C)c1NC(=S)NCc1ccc2c(c1)cc(C)n2C | active: 20.6 µM |  |
| CCCN(C(=O)Cn1cnc2onc(-c3ccc(F)cc3)c2c1=O)c1cccc(Cl)c1 | inconclusive [inhibitor, full curve] |  |
| N#C/C(=C/c1cccnc1)c1ccccc1 |  | inactive: 4.49% |
| O=C(NCc1ccccc1)C(c1ccc(F)cc1)N(C(=O)c1csnn1)C1CCCC1 (stereo not given) | inconclusive [inhibitor, partial curve, poor fit] |  |
| CCN(CC)C(=O)Cn1c(=O)n(Cc2ccc(C(=O)NCCc3ccc(OC)c(OC)c3)cc2)c(=O)c2ccccc21 | inconclusive [inhibitor, single point] |  |
| CCCc1cc(N2CCCC(C(=O)Nc3ccc(OC)cc3OC)C2)n2ncnc2n1 (stereo not given) | inconclusive [inhibitor, partial curve, poor fit] |  |
| Fc1cccc(COc2ccccc2CNc2ccccc2)c1 |  | inactive: -14.3% |
| CCN(Cc1nc(-c2ccc(OC)cc2)no1)C(=O)c1ccc2c(c1)OCO2 |  | inactive: -6.58% |
| CC(=O)c1ccc(S(=O)(=O)NCc2nnnn2-c2ccccc2)cc1 |  | inactive: -17.2% |
| COc1ccccc1NC(=O)CSc1nc2ccccc2c(=O)n1C | active: 14.6 µM |  |
| CC(C)(C)OC(=O)NCCC(=O)N/N=C/c1cccc2cccnc12 | inconclusive [inhibitor, single point] |  |
| NS(=O)(=O)c1ccc(CCNC(=O)c2ccc3c(c2)N(Cc2ccccc2)CCS3)cc1 |  | inactive: 1.12% |
| CCc1ccc(CN(Cc2cn[nH]c2-c2ccc(OC)cc2)C(=O)Nc2cc(Cl)ccc2OC)cc1 | active: 16.4 µM |  |
| CCN(CC)S(=O)(=O)c1ccc(C(=O)Nc2cccc(C)c2)cc1 | inconclusive [inhibitor, partial curve, poor fit] |  |
| CCC(C)NC(=O)c1ccc(-n2c(=S)[nH]c3ccccc3c2=O)cc1 (stereo not given) |  | inactive: -7% |
| FC(F)(F)c1nc(N2CCCC2)ncc1-c1nnnn1-c1ccc(Cl)cc1 | active: 20.6 µM |  |

| SMILES | Potency | activity change, negative = growth inhibition |
| --- | --- | --- |
| CCN1C(=O)/C(=C\C(=O)c2cccs2)c2cc(Br)ccc21 | active: 13 µM |  |
| CCCNC(=O)CN1C(=O)c2ccccc2Sc2ncccc21 |  | inactive: 3.87% |
| Cc1nc(C)c(-c2ccc(SCC(=O)Nc3ccc(F)cc3F)nn2)s1 | inconclusive [inhibitor, single point] |  |
| Cc1cc(N2CCCCCC2)n2nc(C)c(-c3ccccc3)c2n1 | inconclusive [inhibitor, single point] |  |
| CCSC1=NC(C)(C)C=C(/C=C/c2ccc(Cl)cc2Cl)N1 | inconclusive [inhibitor, single point] |  |
| CC(Sc1nnc(-c2ccc(OC(F)F)cc2)n1N)C(=O)NCC1CCCO1 (stereo not given) |  | inactive: 5.62% |
| Cc1ccccc1N1C(S)=C(C#N)C(=O)NC1c1cccs1 (stereo not given) | inconclusive [inhibitor, single point] |  |
| Cc1ccc(-n2ncc3c(NC4CCCCCC4)ncnc32)cc1Cl | inconclusive [inhibitor, single point] |  |
| Cc1cc(NCc2ccccc2)n2ncc(-c3ccccc3)c2n1 |  | inactive: -1.55% |
| CC(=O)c1ccc(N2C(=O)N(CC(=O)c3ccc(F)cc3)c3ccccc3S2(=O)=O)cc1 |  | inactive: -22.9% |
| Cc1cccc(OCC(=O)N/N=C/c2cc([N+](=O)[O-])ccc2N2CCOCC2)c1 | active: 20.6 µM |  |
| CCOCCCNC(=O)CCn1nc(-c2ccc(Cl)cc2)ccc1=O | inconclusive [inhibitor, single point] |  |
| COc1ccc(S(=O)(=O)n2ccc(-c3cnc(-c4ccccc4)s3)n2)cc1 | inconclusive [inhibitor, partial curve] |  |
| O=S(=O)(NCC(c1ccco1)N1CCCCC1)c1cccc(C(F)(F)F)c1 (stereo not given) | inconclusive [inhibitor, single point] |  |
| CCCCn1c(=O)[nH]c(=O)c2c1nc(-c1ccc(-c3ccccc3Br)o1)n2CCOC | inconclusive [inhibitor, single point] |  |
| COc1ccc(CCN(C)C2CCCN(C(=O)Cn3cnnn3)C2)cc1OC (stereo not given) |  | inactive: -12.1% |
| Cc1ccc(OCC(=O)Nc2ccc3c(c2)OCO3)cc1C |  | inactive: -6% |
| Cc1ccc(CN(CC(O)COc2cccc3[nH]cc(C)c23)C(C)(C)C)cc1 (stereo not given) | active: 20.6 µM |  |
| CCOC(=O)C1=C(c2ccccc2)NC(SCC)=C(C#N)C1c1cccnc1 (stereo not given) | inconclusive [inhibitor, single point] |  |
| CCN(CC)c1ccc(C(=C2C=CC(=[N+](CC)CC)C=C2)c2ccc(S(=O)(=O)O)cc2S(=O)(=O)[O-])cc1 | active: 23.1 µM |  |
| Cc1ccc(/C=C(/NC(=O)c2ccccc2)C(=O)NCCc2c[nH]c3ccccc23)o1 | inconclusive [inhibitor, single point] |  |
| COc1ccccc1Nc1c2ccccc2nc2ccccc12 | active: 16.4 µM |  |
| O=C(NC(Cc1ccccc1)C(=O)O)NC12CC3CC(CC(C3)C1)C2 (stereo not given) |  | inactive: -1.19% |
| Cc1ccc(C)c(S(=O)(=O)N2CCCOC2CNC(=O)C(=O)NCCc2ccccc2)c1 (stereo not given) | inconclusive [inhibitor, single point] |  |
| CCOC(=O)N1CCN(C(=O)c2cc(-c3ccc(F)cc3)[nH]c2C)CC1 | inconclusive [inhibitor, single point] |  |

| SMILES | Potency | activity change, negative = growth inhibition |
| --- | --- | --- |
| Cc1cc(C)n(CC(=O)N2CCCC(C(=O)c3cccc(OC(C)C)c3)C2)n1 (stereo not given) | inconclusive [inhibitor, single point] |  |
| COc1cc(OC)c(C(=O)CCCCN2CCC3(CC2)NC(=O)NC3=O)cc1NS(=O)(=O)c1ccc(C(F)(F)F)cc1 | inconclusive [inhibitor, full curve, poor fit] |  |
| O=C(c1nc2nc(-c3ccc(Cl)cc3)cc(C(F)(F)F)n2n1)N1CCOCC1 |  | inconclusive: -30.6% [inhibitor] |
| Cc1ccc2nsnc2c1NC(=O)c1sc2ccccc2c1Cl | inconclusive [inhibitor, partial curve] |  |
| CC(C)(C)OC(=O)NCc1ccc(NC(=O)c2nc[nH]c2C(=O)N[C@@H](Cc2ccccc2)C(=O)OC(C)(C)C)cc1 | active: 14.6 µM |  |
| COc1ccc(S(=O)(=O)NCCc2csc(-c3ccc(F)cc3)n2)cc1F | active: 23.1 µM |  |
| CC(=O)Nc1ccccc1-c1nnn(CC(=O)Nc2ccc3c(c2)OCCO3)n1 |  | inactive: -0.0764% |
| COc1ccc2cc3cc(C(=O)Nc4ccc5c(c4)OCO5)oc3nc2c1 | inconclusive [inhibitor, partial curve] |  |
| O=C(CN1C2=NCCCN2c2ccccc21)c1cccc(Br)c1 | inconclusive [inhibitor, single point] |  |
| Cc1cccc2cc(C#N)c(SCC(=O)N3CC(=O)Nc4ccccc43)nc12 | active: 2.59 µM |  |
| CCC(=O)NC(c1ccccc1)c1c(OC(C)=O)ccc2ccccc12 (stereo not given) | inconclusive [inhibitor, single point] |  |
| Cc1ccsc1C(=O)C1CCCN(Cc2cccn2-c2ccc(Cl)cn2)C1 (stereo not given) | active: 23.1 µM |  |
| Cc1ccc(C)c(NC(=S)NCCc2ccc(F)cc2)c1 | inconclusive [inhibitor, single point] |  |
| CC(C)Nc1nnc(SCC(=O)/C=C2\N(C)c3ccccc3C2(C)C)s1 | active: 16.4 µM |  |
| CC(NS(=O)(=O)c1ccc(Cl)cc1)C(=O)OCC(=O)Nc1ccc(N(C)C)cc1 (stereo not given) | inconclusive [inhibitor, single point] |  |
| COc1cc(OC)c(OC)cc1/C=N/NC(=O)C[n+]1ccccc1 |  | inactive: -3.55% |
| N=c1c2ccccc2nnn1-c1ccc(C(F)(F)F)cc1 | inconclusive [inhibitor, partial curve] |  |
| Cc1nc2c(C(=O)NCc3ccccc3)c[nH]n2c(=O)c1Cc1ccccc1Cl | inconclusive [inhibitor, single point] |  |
| Cc1sc2ncn(CC(=O)N(C)c3ccc(Br)cc3)c(=O)c2c1S(=O)(=O)N1CCC(C)CC1 | inconclusive [inhibitor, partial curve] |  |
| CN(C)Cc1ncccc1Oc1nc2cc(-c3cccc(Cl)c3)sc2c(=O)n1C | inconclusive [inhibitor, single point] |  |
| CC(=O)N1CCc2cc(S(=O)(=O)CCC(=O)N3CCN(c4cccc(C)c4C)CC3)ccc21 | active: 16.4 µM |  |
| CC(C)(C)c1ccc(SC2=C[C@@]3(O)CC[C@@H](O)[C@@](Sc4ccc(C(C)(C)C)cc4)(C2=O)[C@H]3O)cc1 | active: 4.61 µM |  |
| CC(C)(C)OC(=O)NCCCCCc1cn(CC(=O)NCCCCCCCCCCC(=O)N2CCN(C(=O)OC(C)(C)C)CC2)nn1 | active: 5.8 µM |  |
| CC(C)(C)NC(=O)C[n+]1ccc(C(N)=O)cc1 |  | inactive: -7.41% |
| Cc1cccc(NC(=S)N/N=C/c2cccc([N+](=O)[O-])c2)c1 | inconclusive [inhibitor, single point] |  |
